Test results as given in the supplement of paper PMC12355420.
Where a name gives a salt, the structure may show the parent alone. Some of the results follow. Cut-off read from the data, not from the text of the source: active = 0.5 or less and inactive = the rest. Single values are uncertain, as repeats are few or missing.

Test system: HeLa VPS33A R498W KI + HA-SDC1-FLAG;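 note: HA-SDC1 level read out by In-Cell Western staining with an anti-HA antibody against the N-terminal tag, screening FDA-approved library drugs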
Assay: relative GAG core protein HA-SDC1 amount per cell number vs DMSO (fraction of DMSO); higher = more SDC1 (GAG core protein)
Conditions: 50 µM; 24 h

Row | SMILES | relative GAG core protein HA-SDC1 amount per cell number
1 | CC(=O)NO [Acetohydroxamic Acid] | inactive: 0.863
2 | O=C(O)C(O)Cc1ccc(O)c(O)c1 (stereo unspecified) [Sodium Danshensu] | inactive: 1.15
3 | COC(=O)C1=C(C)NC(C)=C(C(=O)OC(C)C)C1c1cccc2nonc12 (stereo unspecified) [Isradipine (Dynacirc)] | active: 0.292
4 | CC(C)[C@@H]1CC[C@@H](C)C[C@H]1O [L-Menthol] | inactive: 0.836
5 | COc1ccc(C(=O)CC(=O)c2ccc(C(C)(C)C)cc2)cc1 [Avobenzone] | inactive: 0.669
6 | Cc1c(C(=O)Nc2ccc(N3C[C@@H](C)O[C@@H](C)C3)nc2)cccc1-c1ccc(OC(F)(F)F)cc1 [LDE225 Diphosphate] | inactive: 0.773
7 | Nc1nc2c(ncn2COC(CO)CO)c(=O)[nH]1 [Ganciclovir] | inactive: 1.03
8 | CCCCOc1cc(C(=O)OCCN(CC)CC)ccc1N [Oxybuprocaine HCl] | inactive: 0.973
9 | OC[C@H]1O[C@@H](Oc2cc(O)cc(/C=C/c3ccc(O)cc3)c2)[C@H](O)[C@@H](O)[C@@H]1O [Polydatin] | inactive: 0.953
10 | NCC(=O)CCC(=O)O [5-Aminolevulinic acid HCl] | inactive: 0.883
11 | C[C@H]1c2cccc(O)c2C(O)=C2C(=O)[C@]3(O)C(O)=C(C(N)=O)C(=O)[C@@H](N(C)C)[C@@H]3[C@@H](O)[C@@H]21 [Doxycycline HCl] | active: 0.425
12 | NCCC(O)(P(=O)(O)O)P(=O)(O)O [Pamidronate Disodium] | inactive: 0.888

Test system: HeLa VPS33A KO + NLuc-VPS33A R498W;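 note: screen of an FDA-approved drug library, NanoLuc luminescence read after lysing the treated cells, taken as a measure of mutant VPS33A protein stability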
Assay: relative mutant VPS33A R498W amount (NanoLuc luminescence) vs DMSO (fraction of DMSO); HeLa model of a glycosaminoglycan (GAG) storage disease; KI is knock-in and KO knock-out; SDC1 is syndecan 1; higher = higher mutant VPS33A level
Conditions: 50 µM; 24 h

Row | SMILES | relative mutant VPS33A R498W amount
13 | CCOC(=O)Nc1ccc(NCc2ccc(F)cc2)nc1N [Flupirtine maleate] | 0.982
14 | OCC1(O)OC[C@@H](O)[C@@H](O)[C@@H]1O (stereo partly drawn) [D-(-)-Fructose] | 1.41
15 | COc1nc(C)nc(Cl)c1NC1=NCCN1 [Moxonidine] | 1.2
16 | N[C@H]1CONC1=O [L-Cycloserine] | 1.18
17 | C[C@@H]1C/C=C/C=C/C=C/C=C/[C@H](O[C@@H]2O[C@H](C)[C@@H](O)[C@H](N)[C@@H]2O)C[C@@H]2O[C@](O)(C[C@@H](O)C[C@H]3O[C@@H]3/C=C/C(=O)O1)C[C@H](O)[C@H]2C(=O)O [Natamycin] | 1.35
18 | O=C(O[C@@H]1C[C@@H]2C[C@H]3C[C@H](C1)N2CC3=O)c1c[nH]c2ccccc12 [Dolasetron] | 1.08
19 | C[C@H](CCC(=O)NCCS(=O)(=O)O)[C@H]1CC[C@H]2[C@@H]3[C@@H](O)C[C@@H]4C[C@H](O)CC[C@]4(C)[C@H]3CC[C@]12C [Tauroursodeoxycholic Acid] | 1.55
20 | COc1ccccc1N1CCN(CC(O)COc2cccc3ccccc23)CC1 (stereo unspecified) [Naftopidil] | 0.927
21 | O=c1c(O)c(-c2ccc(O)c(O)c2)oc2cc(O)cc(O)c12 [Quercetin dihydrate] | 0.36
22 | Oc1cccc(O)c1 [Resorcinol] | 1.01
23 | CCCCCCNC(=O)n1cc(F)c(=O)[nH]c1=O [Carmofur] | 0.827
24 | CC(C)(CO)[C@@H](O)C(=O)NCCCO [Dexpanthenol] | 1.37
25 | COC(=O)N/N=C/c1c[n+]([O-])c2ccccc2[n+]1[O-] [Carbadox] | 0.762
26 | COc1ccc(/C=C/C(=O)Nc2ccccc2C(=O)O)cc1OC [Tranilast] | 1.14
27 | CC1Cc2ccccc2N1NC(=O)c1ccc(Cl)c(S(N)(=O)=O)c1 (stereo unspecified) [Indapamide] | 0.804
28 | CN[C@H](CC(C)C)C(=O)N[C@H]1C(=O)N[C@@H](CC(N)=O)C(=O)N[C@H]2C(=O)N[C@H]3C(=O)N[C@H](C(=O)N[C@H](C(=O)O)c4cc(O)cc(O)c4-c4cc3ccc4O)[C@H](O)c3ccc(c(Cl)c3)Oc3cc2cc(c3O[C@@H]2O[C@H](CO)[C@@H](O)[C@H](O)[C@H]2O[C@H]2C[C@](C)(N)[C@H](O)[C@H](C)O2)Oc2ccc(cc2Cl)[C@H]1O [Vancomycin hydrochloride] | 1.09
29 | c1cc(CN2CCCNCCNCCCNCC2)ccc1CN1CCCNCCNCCCNCC1 [Plerixafor 8HCl (AMD3100 8HCl)] | 0.942
30 | C[C@]12CC[C@@H]3c4ccc(OC(=O)c5ccccc5)cc4CC[C@H]3[C@@H]1CC[C@@H]2O [Estradiol Benzoate] | 0.91
31 | Oc1ccc(OCc2ccccc2)cc1 [Monobenzone] | 0.557
32 | CC[C@H]1OC(=O)[C@H](C)[C@@H](O[C@H]2C[C@@](C)(OC)[C@@H](O)[C@H](C)O2)[C@H](C)[C@@H](O[C@@H]2O[C@H](C)C[C@H](N(C)C)[C@H]2O)[C@](C)(O)C[C@@H](C)C(=O)[C@H](C)[C@@H](O)[C@]1(C)O [Erythromycin] | 1.13

Row | SMILES | relative mutant VPS33A R498W amount
33 | Cc1nnc(C(C)C)n1C1C[C@H]2CC[C@@H](C1)N2CC[C@H](NC(=O)C1CCC(F)(F)CC1)c1ccccc1 (stereo in doubt) [Maraviroc] | 0.934
34 | Cn1nnc2c(C(N)=O)ncn2c1=O [Temozolomide] | 0.905
35 | CC[C@@H]1/C=C(\C)C[C@H](C)C[C@H](OC)[C@H]2O[C@@](O)(C(=O)C(=O)N3CCCC[C@H]3C(=O)O[C@H](/C(C)=C/[C@@H]3CC[C@H](Cl)[C@H](OC)C3)[C@H](C)[C@@H](O)CC1=O)[C@H](C)C[C@@H]2OC [Pimecrolimus] | 0.619
36 | CN1CCC[C@H]1c1cccnc1 [Nicotine] | 1.18
37 | COc1ccccc1Oc1c(NS(=O)(=O)c2ccc(C(C)(C)C)cc2)nc(-c2ncccn2)nc1OCCO [Bosentan] | 1.13
38 | CC(COc1ccccc1)NC(C)C(O)c1ccc(O)cc1 (stereo unspecified) [Isoxsuprine (hydrochloride)] | 1.55
39 | N=C(N)NC(=O)Cc1c(Cl)cccc1Cl [Guanfacine hydrochloride] | 0.616
40 | CC(=O)NO [Acetohydroxamic Acid] | 0.799
41 | O=C(O)C(O)Cc1ccc(O)c(O)c1 (stereo unspecified) [Sodium Danshensu] | 1.3
42 | COC(=O)C1=C(C)NC(C)=C(C(=O)OC(C)C)C1c1cccc2nonc12 (stereo unspecified) [Isradipine (Dynacirc)] | 0.33
43 | CC(C)[C@@H]1CC[C@@H](C)C[C@H]1O [L-Menthol] | 1.06
44 | COc1ccc(C(=O)CC(=O)c2ccc(C(C)(C)C)cc2)cc1 [Avobenzone] | 1.04
45 | Cc1c(C(=O)Nc2ccc(N3C[C@@H](C)O[C@@H](C)C3)nc2)cccc1-c1ccc(OC(F)(F)F)cc1 [LDE225 Diphosphate] | 0.485
46 | Nc1nc2c(ncn2COC(CO)CO)c(=O)[nH]1 [Ganciclovir] | 1.39
47 | CCCCOc1cc(C(=O)OCCN(CC)CC)ccc1N [Oxybuprocaine HCl] | 1.1
48 | OC[C@H]1O[C@@H](Oc2cc(O)cc(/C=C/c3ccc(O)cc3)c2)[C@H](O)[C@@H](O)[C@@H]1O [Polydatin] | 1.17
49 | NCC(=O)CCC(=O)O [5-Aminolevulinic acid HCl] | 1.39
50 | C[C@H]1c2cccc(O)c2C(O)=C2C(=O)[C@]3(O)C(O)=C(C(N)=O)C(=O)[C@@H](N(C)C)[C@@H]3[C@@H](O)[C@@H]21 [Doxycycline HCl] | 0.294
51 | NCCC(O)(P(=O)(O)O)P(=O)(O)O [Pamidronate Disodium] | 1.04
